Source: publication PMC9462479
Results are given in words; binding and its absence hold for the method and conditions named. In cells and extracts the contact can be indirect. Some results given as binding are weak or reduced against the parent protein; the word gives no strength. Sequences can lack the tags named with a protein.

T1: FLAG-SREBF1(N), N-terminus of mouse SREBF1, from pcDNA3.1-FLAG-Srebf1(N) in HEK293T (mouse) (UniProt Q9WTN3)
T1 sequence: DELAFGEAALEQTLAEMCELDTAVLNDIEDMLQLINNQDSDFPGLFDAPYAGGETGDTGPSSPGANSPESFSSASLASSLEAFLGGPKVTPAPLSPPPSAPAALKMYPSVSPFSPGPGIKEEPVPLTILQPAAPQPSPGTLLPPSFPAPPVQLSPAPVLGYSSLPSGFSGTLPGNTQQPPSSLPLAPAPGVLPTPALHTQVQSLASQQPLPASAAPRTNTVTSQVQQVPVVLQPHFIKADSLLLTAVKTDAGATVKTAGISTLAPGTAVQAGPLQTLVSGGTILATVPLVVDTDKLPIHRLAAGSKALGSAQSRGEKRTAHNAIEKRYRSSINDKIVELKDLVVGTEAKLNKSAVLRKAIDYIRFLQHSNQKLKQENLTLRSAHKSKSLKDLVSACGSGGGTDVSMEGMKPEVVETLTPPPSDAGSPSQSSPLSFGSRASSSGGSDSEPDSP


Each binder was assayed against T1, FLAG-SREBF1(N), N-terminus of mouse SREBF1, from pcDNA3.1-FLAG-Srebf1(N) in HEK293T (mouse) (assay: co-IP; FLAG IP: HEK293T cells transfected, lysed in TNE buffer (150 mM NaCl, 1% NP40), anti-FLAG M2 Affinity Gel, eluted with FLAG peptide, blotted with anti-myc).

| binding | Binder |
| --- | --- |
| binds | myc-tagged human ARMC5(L754P) (protein, UniProt Q96C12 1-935) MAAAKPTLTDSLSFCLAQLAAAAGEALGGEKDPATNETPLSRALLALRTRHIKAAGGIERFRARGGLRPLLALLRRAAAAGSAPSQAGPGSAPSSAASGASSPAPASGPAPSAVSSSSPTPPVRLRKTLDLALSILADCCTEGACRTEVRRLGGILPLVTILQCMKTDSIQNRTARALGNLAMEPESCGDIHCAGAVPLLVESLTACQDSQCLQSVVRALRNLADSPQHRLALAQQGAVRPLAELLATAPDAALTLALVRALLELSRGCSRACAEQLSLGGGLGPLVSLASHPKRAVREGTILILANLCAQGLIRPALGNAGGVEVLVDELRQRRDPNGASPTSQQPLVRAVCLLCREAINRARLRDAGGLDLLMGLLRDPRASAWHPRIVAALVGFLYDTGALGRLQALGLVPLLAGQLCGEAGEEEEEGREAASWDFPEERTPERAQGGSFRSLRSWLISEGYATGPDDISPDWSPEQCPPEPMEPASPAPTPTSLRAPRTQRTPGRSPAAAIEEPWGREGPALLLLSRFSQAPDPSGALVTGPALYGLLTYVTGAPGPPSPRALRILSRLTCNPACLEAFVRSYGAALLRAWLVLGVAPDDWPAPRARPTLHSRHRELGERLLQNLTVQAESPFGVGALTHLLLSGSPEDRVACALTLPFICRKPSLWRRLLLEQGGLRLLLAALTRPAPHPLFLFFAADSLSCLQDLVSPTVSPAVPQAVPMDLDSPSPCLYEPLLGPAPVPAPDLHFLPDSGLQLPAQRAASATASPFFRALLSGSFAEAQMDLVPLRGLSPGAAWPVLHHLHGCRGCGAALGPVPPPGQPLLGSEAEEALEAAGRFLLPGLEEELEEAVGRIHLGPQGGPESVGEVFRLGRPRLAAHCARWTLGSEQCPRKRGLALVGLVEAAGEEAGPLTEALLAVVMGIELGARVPA |
| no binding | myc-tagged mouse ARMC5ΔARM, N-terminal deletion mutant (pcDNA3.1-myc-mArmc5ΔARM) (domain or fragment, UniProt Q5EBP3 442-926) GQAEGGSFRSLRLWLISEGYAAGPGDISPDWSPERCPMPEPSESVSPTPGQTSMSTPRTLRKPGRIPAATPEEPWGQEGPALLLLSRFSQAPDPSGALVTGPALCGLLAYVTGAPGPPNPRALRILARLTCNPACLEAFVRTYGAALLRAWLVLGVSPDDWPVPHARPVHRSQHRELGEMLLQNLTVQAESPFGVGALTHLLLSGSPEDRVACALTLPFICRKPTLWRRLLLDQGGLRLLLTALTQPAPHPLFLFFAADSLSCLQGLVSPTASPVPLPALPLELDSPPPCLYEPLLGPAPAPAPDLHFVLDSGLQLPAQRAASAAASPFFRALLSGSFAEAQMDLVPLRGLSPGAAWPVLHHLHGCRGCGAALGPVPPPGQPLLGSKAEEALEAAGRFLLPALEEELEEAVGRIHLSPRGGPESVGEVFRLGRPRLAAHCARWTLEPGQCPRKRALALTGLVEAAGEEAGPLTEALLAVVMGIES |

Continued, binder first:

| Binder | binding |
| --- | --- |
| myc-tagged human ARMC5 (pcDNA3.1-myc-hARMC5), wild type (protein, UniProt Q96C12 1-935) MAAAKPTLTDSLSFCLAQLAAAAGEALGGEKDPATNETPLSRALLALRTRHIKAAGGIERFRARGGLRPLLALLRRAAAAGSAPSQAGPGSAPSSAASGASSPAPASGPAPSAVSSSSPTPPVRLRKTLDLALSILADCCTEGACRTEVRRLGGILPLVTILQCMKTDSIQNRTARALGNLAMEPESCGDIHCAGAVPLLVESLTACQDSQCLQSVVRALRNLADSPQHRLALAQQGAVRPLAELLATAPDAALTLALVRALLELSRGCSRACAEQLSLGGGLGPLVSLASHPKRAVREGTILILANLCAQGLIRPALGNAGGVEVLVDELRQRRDPNGASPTSQQPLVRAVCLLCREAINRARLRDAGGLDLLMGLLRDPRASAWHPRIVAALVGFLYDTGALGRLQALGLVPLLAGQLCGEAGEEEEEGREAASWDFPEERTPERAQGGSFRSLRSWLISEGYATGPDDISPDWSPEQCPPEPMEPASPAPTPTSLRAPRTQRTPGRSPAAAIEEPWGREGPALLLLSRFSQAPDPSGALVTGPALYGLLTYVTGAPGPPSPRALRILSRLTCNPACLEAFVRSYGAALLRAWLVLGVAPDDWPAPRARPTLHSRHRELGERLLQNLTVQAESPFGVGALTHLLLSGSPEDRVACALTLPFICRKPSLWRRLLLEQGGLRLLLAALTRPAPHPLFLFFAADSLSCLQDLVSPTVSPAVPQAVPMDLDSPSPCLYEPLLGPAPVPAPDLHFLLDSGLQLPAQRAASATASPFFRALLSGSFAEAQMDLVPLRGLSPGAAWPVLHHLHGCRGCGAALGPVPPPGQPLLGSEAEEALEAAGRFLLPGLEEELEEAVGRIHLGPQGGPESVGEVFRLGRPRLAAHCARWTLGSEQCPRKRGLALVGLVEAAGEEAGPLTEALLAVVMGIELGARVPA | binds |
| myc-tagged human ARMC5(R898W) (protein, UniProt Q96C12 1-935) MAAAKPTLTDSLSFCLAQLAAAAGEALGGEKDPATNETPLSRALLALRTRHIKAAGGIERFRARGGLRPLLALLRRAAAAGSAPSQAGPGSAPSSAASGASSPAPASGPAPSAVSSSSPTPPVRLRKTLDLALSILADCCTEGACRTEVRRLGGILPLVTILQCMKTDSIQNRTARALGNLAMEPESCGDIHCAGAVPLLVESLTACQDSQCLQSVVRALRNLADSPQHRLALAQQGAVRPLAELLATAPDAALTLALVRALLELSRGCSRACAEQLSLGGGLGPLVSLASHPKRAVREGTILILANLCAQGLIRPALGNAGGVEVLVDELRQRRDPNGASPTSQQPLVRAVCLLCREAINRARLRDAGGLDLLMGLLRDPRASAWHPRIVAALVGFLYDTGALGRLQALGLVPLLAGQLCGEAGEEEEEGREAASWDFPEERTPERAQGGSFRSLRSWLISEGYATGPDDISPDWSPEQCPPEPMEPASPAPTPTSLRAPRTQRTPGRSPAAAIEEPWGREGPALLLLSRFSQAPDPSGALVTGPALYGLLTYVTGAPGPPSPRALRILSRLTCNPACLEAFVRSYGAALLRAWLVLGVAPDDWPAPRARPTLHSRHRELGERLLQNLTVQAESPFGVGALTHLLLSGSPEDRVACALTLPFICRKPSLWRRLLLEQGGLRLLLAALTRPAPHPLFLFFAADSLSCLQDLVSPTVSPAVPQAVPMDLDSPSPCLYEPLLGPAPVPAPDLHFLLDSGLQLPAQRAASATASPFFRALLSGSFAEAQMDLVPLRGLSPGAAWPVLHHLHGCRGCGAALGPVPPPGQPLLGSEAEEALEAAGRFLLPGLEEELEEAVGRIHLGPQGGPESVGEVFRLGRPRLAAHCARWTLGSEQCPRKWGLALVGLVEAAGEEAGPLTEALLAVVMGIELGARVPA | binds |
| myc-tagged mouse ARMC5ΔBTB, C-terminal deletion mutant (pcDNA3.1-myc-mArmc5ΔBTB) (domain or fragment, UniProt Q5EBP3 1-730) MAAARPALTDSLSFCLAQLTAAAGEGPGGGKDPATNETPLGRALLALRTRHIKAAEGIERFRARGGLRPLLALLRRTAAAGPAPSQAASGSAPSSVASAGSTPGHAPAAESLLTPSLPMRLRKTLDLALSILANCCTEGACRAEVRRLGGILPLVTILQCVKTDSIQNRTARALGNLAMEPESCRDIHSAGAVPFLVESLTACQDSQCLQSIVRALRNLADSPQHRLALAQQGAVRPLAELLATAPDPALTAALVRALLELSRGCSRACAEQLSLGGALGPLVSLASHPKRAIREAAILILANLCAQGLVRPALGNAGGVEVLLGELRRRRSPGGSSSATQQPLVRAVCLLCREAINRARLRDAGGLELLMGLLQDPGASAWHPRVVAALVGFLYDTGALGKLQALGLVPLLARQLCGEAGEEEEEGIEAASWDFPEERTSGQAEGGSFRSLRLWLISEGYAAGPGDISPDWSPERCPMPEPSESVSPTPGQTSMSTPRTLRKPGRIPAATPEEPWGQEGPALLLLSRFSQAPDPSGALVTGPALCGLLAYVTGAPGPPNPRALRILARLTCNPACLEAFVRTYGAALLRAWLVLGVSPDDWPVPHARPVHRSQHRELGEMLLQNLTVQAESPFGVGALTHLLLSGSPEDRVACALTLPFICRKPTLWRRLLLDQGGLRLLLTALTQPAPHPLFLFFAADSLSCLQGLVSPTASPVPLPALPLELDSPPP | binds |
